Results from patent US12551573B2, “Compositions and methods for the targeting of PCSK9” (Scribe Therapeutics Inc., priority 2022, dated 2026).
Positions count from the first letter of the chain named. Where two headings read alike, the source gives them in different places.

B1: DOMAIN_26233 (protein, listed as Colinus virginianus)
chain: SQEPVSFEEVAVYFSREEWALLDPAQRALYRDVMLETYECVASLAPLPAPKPMVISLLEEGEEPWIPDVGSPEAVAGDVSP
B2: DOMAIN_26236 (protein, listed as Pelodiscus sinensis)
chain: VSEPVTFEEVALYFSEEEWALLDAGQRALYRDVMKENYEAVRWLDNGRLNENHDKSLQNEGPEQMAPCGMMLGISEGHVSQ
B3: DOMAIN_26265 (protein, listed as Geotrypetes seraphini)
chain: KLKPVKFQDVAVYFSEEEWQLLENQQKELYRSVMKENYENLTSLGFTTTKPNILKRMEQGRPLWVSTRRKVIKHSFREGEP
B4: DOMAIN_26335 (protein, listed as Colinus virginianus)
chain: EPVSFEEVAVYFSREEWALLDPAQRALYRDVMLETYECVASLAPLPGPKPMVISLLEEGEEPWIPDVGSPEAVAGDVSPGE
B5: DOMAIN_26340 (protein, listed as Pelodiscus sinensis)
chain: AQGLVPFEEVAVYFTRTEWALLDPAQRALYRAVMQENYENVTSLGFAVSKPDVISQLERGEEPWVPELQGSEHREILGGTG
B6: DOMAIN_26353 (protein, listed as Pelodiscus sinensis)
chain: VEPVSFEEVAVYFSEEEWALLDPGQRALYWDVMQENYEAVSWLVRGRGVSKAHVISWVERGEELWIPDRQGCEEGESISDI
B7: DOMAIN_26373 (protein, listed as Pseudonaja textilis)
chain: FLPQVTFEDVAIYFSREEWDELSEWQRELYQAVMMENYEAVLSLGKNDFIAQCTWGLREGEKRASGKSEKARNRPVSNLWR
B8: DOMAIN_26414 (protein, listed as Pelodiscus sinensis)
chain: FQGPVTFDEVAVYFTKEEWALLDPAQRALYRDVMQENYETVTSLGLPVSRPDVISQMEQGEEPWASALQGSEDRLILRGIC
B9: DOMAIN_26415 (protein, listed as Pelodiscus sinensis)
chain: FLMPVTFEEVAVYFTPGQGALLDPAQRALYRDVMQENYETVASLGFSIPKPDLIAQLEQGEEPWVPDLQPSKEMVILRGIC
B10: DOMAIN_26416 (protein, listed as Pelodiscus sinensis)
chain: VVEPVSFEEVAVYFSEEEWALLDPGQRALYWAVMQENYEAVSWLGFSIPKPDLITQLDRGEEPWVPDLQPSKKLEILRGTR
B11: DOMAIN_26417 (protein, listed as Pelodiscus sinensis)
chain: AQVPVTFEEVAVYFTQGQGALLGPAQRALYRDVMRENYEMVTSLGFPVPKPDLVARLERGEEPWVSDCLASEEGGTRRGRG
B12: DOMAIN_26423 (protein, listed as Pelodiscus sinensis)
chain: AQVPVTFEEVAVYFTAGQGALLGPNQRALYRDVMQENYETVASLGFSIPKPDLITQLERGEEPWVPDLQPSKEMEFLRGTC
B13: DOMAIN_26430 (protein, listed as Pelodiscus sinensis)
chain: VAGPVTFEEVAVYFSEEEWALLDPGQRALYRDVMQENYEAVSWLGFPVSKPGETSWLERAGKLQEWESRSHANTARPRGNQ
B14: DOMAIN_26439 (protein, listed as Pelodiscus sinensis)
chain: SEMRVTFEEVAVYFTKGQGALLDARQKALYRDVMLENYEAVTSLGFPVPKPELIARLERGEEPWVPDLQAGEEREILRGTR
B15: DOMAIN_26469 (protein, listed as Pelodiscus sinensis)
chain: VTFEEVAVYFSAEEWALLGPAQRALYREVMRENYEAVTSLAWAGLPISKPDLISCMERGEEPWVAHLQSQRRRELPRGRNS
B16: DOMAIN_987 (protein)
chain: MDTVVFEDVVVDFTPEEWALLNPAQRKLYRDVMLETFKHLASVDNEAQLKASGSISQQDTSGEKLSLKQKIEKFTRKNIWA
modifications: Pan troglodytes
B17: DOMAIN_26577 (protein, listed as Geotrypetes seraphini)
chain: QQVPVTFEDVAVSFSQEEWKYLDEAQKNLYWEVMKENYETLISLDSEVHQEEEREKNQEEYPMLWGLISRQSRKNHEKVYW
B18: DOMAIN_26634 (protein, listed as Gopherus agassizii)
chain: FQGPVTFEEVAVYFTSEEWALLDPTQRALYWDVMQENYENVTSLGFPVSKPHIISQLEQGAEPWVPDLQGSEEILSKHQRI
B19: DOMAIN_26636 (protein, listed as Gopherus agassizii)
chain: FPMPVTFEEVAVYFTQGQGALLDPAQRALYRDVMQENYKMVTSLAGFPIPKPDLIAQLERGEEPWVPDLQADEERESPRGT
B20: DOMAIN_26660 (protein, listed as Phasianus colchicus)
chain: CQEPVSFAQVAVYFSREEWALLDPAQRALYRDVMLETYQCVASLAPLPAPKPVLISQLEGEEDPCISDVRSPEAVPGDLSP
B21: DOMAIN_26679 (protein, listed as Paroedura picta)
chain: MLSPVTFEDVAVYFTEGQGALLDPNQRALYREVMMENYENMASLGFLFIKPALISQLEQGEELWAPESQGLDAAEISDTSD
B22: DOMAIN_26780 (protein)
chain: EEPVSFAEVAVYFSREEWALLDPAQRALYRDVMLETYQCVASMESLLPAPKPIVISLLEGGEDLWIPDMQSPEDVAGDLRP
modifications: Meleagris gallopavo
B23: DOMAIN_26783 (protein)
chain: EPVSFAEVAVYFSREEWALLDPAQRALYRDVMLETYQCVASLVTETPVPAPKPVLISLLEGRKEPWIPDMRSPEAMPGDLS
modifications: Meleagris gallopavo
B24: DOMAIN_26795 (protein)
chain: B1 chain with E8A, E39Q, V54L, E60G, G70R, A76P, V79L
modifications: Meleagris gallopavo
B25: DOMAIN_999 (protein)
chain: CSHRSCREDPGTSESREMDPVAFKDVAVNFTQEEWALLDISQRKLYREVMLETFRNLTSIGKKWKDQNIEFEYQNPRRNFR
modifications: Pan troglodytes
B26: DOMAIN_26800 (protein)
chain: SQEPVSFADVAVYFSREEWALLDPAQRVLYRDVMLETYECIASLACPAPKPAVISMLEGEEDPWIPEDMAGDLGPGEPVRE
modifications: Meleagris gallopavo
B27: DOMAIN_26803 (protein)
chain: GKMPVTFEDVAVYFSPEEWAELAGWQRRLYREVMLENYQAVASLGWPAVKPEIICKMEREEMPCMPAPPRARWRHRTPVPA
modifications: Aquila chrysaetos

Test system: HBEGF locus
Type: cell-based, human
[1] = high-throughput screen of dXR repression of the HBEGF gene, abundance of each domain in the library before vs after diphtheria toxin selection, listed domains met p-value <0.01 and log2(fold change) >2
[2] = fold change in abundance of each repressor domain in the dXR library before vs after diphtheria toxin selection, dXR repression of the HBEGF gene, domains meeting p-value <0.01 and log2(fold change) >2
[3] = high-throughput screen of dXR repression of the HBEGF gene, change in abundance of each domain in the library before and after diphtheria toxin selection

| Molecule | Log2 (fold change) [1] | Log2 (fold change) [2] | other results |
| --- | --- | --- | --- |
| B1 | 3.6739 |  |  |
| B2 | 2.7094 |  |  |
| B3 | 2.5922 |  |  |
| B4 | 4.0965 |  |  |
| B5 | 3.1704 |  |  |
| B6 | 3.5785 |  |  |
| B7 | 3.3204 |  |  |
| B8 | 2.9544 |  |  |
| B9 | 2.5032 |  |  |
| B10 | 3.6321 |  |  |
| B11 | 4.1057 |  |  |
| B12 |  | 3.0169 |  |
| B13 |  | 2.6946 |  |
| B14 |  | 3.2468 |  |
| B15 |  | 3.021 |  |
| B16 |  |  | Log2 (fold change) [3]: 2.6881 |
| B17 |  | 2.4722 |  |
| B18 |  | 2.8182 |  |
| B19 |  | 2.6934 |  |
| B20 |  | 3.201 |  |
| B21 |  | 2.6033 |  |
| B22 |  | 3.1696 |  |
| B23 |  | 3.2848 |  |
| B24 |  | 3.3538 |  |
| B25 |  |  | Log2 (fold change) [3]: 2.7361 |
| B26 |  | 3.8197 |  |
| B27 |  | 3.4265 |  |
